# Data as given in the RNAGym collection of RNA variant scans (doi:10.1093/nar/gkz1192).
# Read counts are not given, so values of variants with three or more changes are uncertain.
# B1: CPEB3 Ribozyme (parent)
# chain: UAACAGGGGGCCACAGCAGAAGCGUUCACGUCGCAGCCCCUGUCAGAUUCUGGUGAAUCUGCGAAUUCUGCUGUAUAUCUC
# Variants of: B1
# Assay: self-cleavage, relative activity (ratio to wild type); higher = more cleavage; in vitro, sequencing
# Summary of the method: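 Relative activity compares each variant's cleaved/total read fraction with that of the unmutated ribozyme. To get these fractions, barcoded CPEB3 ribozyme libraries from rounds of error-prone PCR were transcribed with T7 RNA polymerase for 5 hours at 37°C and then given 15 min of DNase I treatment before EDTA was added. The RNAs were reverse transcribed with template switching and sequenced on Illumina, and DNA sequencing linked barcodes to variants. A minimum of 5 reads applied, and three batches were averaged.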
row,Variant,self-cleavage
1,UAACAAGGGGCCACAGCAGAAGCGUUCACGUCGCAGUCCCUGUCAGAUUCUGGUGAAUCUGCGUAUCCUGCAGUAUAUCUC [G6A C37U A64U U67C U72A],0.13
2,UAACAAGGGGCCACAGCAGAAGCGUUCACGUCGCAGCGCCGGUCAGAUUCUGGUGAAUCUGCGAAUUCUGCUGUAUAUCUC [G6A C38G U41G],0.28
3,UAACAAGGGGCCACAGCAGAAGCGUUCACGUCGCAGCUCCGCUCAGAUUCUGGUGAAUCUGCGAAUUCUGCUGUAUAUCUC [G6A C38U U41G G42C],0.09
4,UAACAAGGGGCCACAGCAGAAGCGUUCACGUCGCAGCCGCUGUCAGAUUCUGGUGAGUCUGCGAAUUCUGCUGUAUAUCUC [G6A C39G A57G],0.33
5,UAACAAGGGGCCACAGCAGAAGCGUUCACGUCGCAGCCCUUGUCAGAUUCUGGUGAGUCUGCGAAUUCUGCUGUAUGUCUC [G6A C40U A57G A77G],0.13
6,UAACAAGGGGCCACAGCAGAAGCGUUCACGUCGCAGCCCCUGUAAGAUUCUGGUGGAUCUGCGAGUUCUGCUGUAUAUCUC [G6A C44A A56G A65G],0.08
7,UAACAAGGGGCCACAGCAGAAGCGUUCACGUCGCAGCCCCUGUCAGAUUCUGGUGAAUCUGUGAAUUCUGCAGUAUAUCCC [G6A C62U U72A U80C],0.08
8,UAACAAAGGGCCACAGCAGAAGCGUUCACGUCGCAGCCCCUGUCCGAUUCAGGUGAAUCUGCGAAUUCUGCUGUAUACCUC [G6A G7A A45C U51A U78C],0.07
9,UAACAAGAGGCCACAGCAGAAGGGUUCACGUCUCAGCCCCUGUCAGAUUCUGGUGAAUCUGCGAAUUCUGCUGUGUAUCUC [G6A G8A C23G G33U A75G],0.04
10,UAACAAGAAGCCACAGCAGAAGCGUUCACGUCGCAGCCCCUGUCAGAUUCUGGUGAAUCUGCGAAUUCUGCUGUAUGUCUC [G6A G8A G9A A77G],0.41
11,UAACAAGGAGCCACUGCAGAAGUGCUCACGCCGCAGCCCCUGCCAGAUUCUGGUGAAUCUGCGAAUUCUGCUGUAUAUCUC [G6A G9A A15U C23U U25C U31C U43C],0.11
12,UAACAAGGAGCCACUGCAGAAGCGUUCACGCCGCAGCCCCUGCCAGAUUCUGGUGAAUCUGCGAAUUCUGCUGUAUAUCUC [G6A G9A A15U U31C U43C],0.06
13,UAACAAGGAGCCACAGCGGAAGCGUUCACGUCGCGGCCCCUGUCAGAUUCUGGUGAAUCUGCGAAUUCUGCUGUAUAUCUC [G6A G9A A18G A35G],0.15
14,UAACAAGGAGCCACAGCAGAAGUGUUCACGUCGCAGCCCCUGUCAGAUUCUUGUGAAUCUGCGAAUUCUGCUGAAUAUCGC [G6A G9A C23U G52U U74A U80G],0.04
15,UAACAAGGAGCCACAGCAGAAGUGCUCACGUCGCAGCCCCUGUCAGAUUCUGGUAAAUCUGCGAAUUCUGCUGUAUAUCUC [G6A G9A C23U U25C G55A],0.07
16,UAACAAGGAGCCACAGCAGAAGCGUUCACGCCGCAGCCCCUGCCAGAUUCUGGUGGAUCUGCGAAUUCUGCUGUAUAUCUC [G6A G9A U31C U43C A56G],0.21
17,UAACAAGGCGCCACAGCAGAAGCGUUCACGACGCAGCCCCUGUCAGAUUCUGGUGAAUCUGCGGAUUCUGCUGUAUAUCUC [G6A G9C U31A A64G],0.06

row,Variant,self-cleavage
1,UAACAAGGUGCCACAGCAGAAGCGUUCACGUCGCAGCCCCUGUCAGGUUCUGGUGAAUCUGCGAGUUCUGCUGUAUAACUC [G6A G9U A47G A65G U78A],0.06
2,UAACAAGGUGCCACAGCAGAAGGGUUCACGUCGCAGCCCCUGUCAGAUUCUGGCGAAUCUGCGAAUUCUGCUGUAUAUCUC [G6A G9U C23G U54C],0.05
3,UAACAAGGUGCCACAGCAGAAGCGUUCACGUCGCAGCCCCUAUCAGAUUCUGGUGAGUCUGCGAAUCCUGCUGUAUUUCUC [G6A G9U G42A A57G U67C A77U],0.06
4,UAACAAGGUGCCACAGCAGAAGCGUACACGUCGCAGCCCCUGUCAGAUUCUGGUGAAUCUGCGAAUUCUGCCGUAUAACUC [G6A G9U U26A U72C U78A],0.05
5,UAACAAGGGACCACAGCAGAAGCGUUCGCGACGCAGCCCCUGUCAGAUUCUGGUGAAUCUGCGAAUUCUGCUGUAUAUCUC [G6A G10A A28G U31A],0.23
6,UAACAAGGGACCACAGCAGAAGCGUUCACGUCGCUGCCCCUGUCAGACUCUGGUGAAUCUGCGGAUUCUGCUGUUUAUCUC [G6A G10A A35U U48C A64G A75U],0.04
7,UAACAAGGGACCACAGCAGAAGCGCUCACGUCGCAGCCCCUGUCUGAUUCUGGAGAAUCUGCGAAUUCUGCUGUAUAUCUC [G6A G10A U25C A45U U54A],0.14
8,UAACAAGGGACCACAGCAGAAGCGUUCACGUCGCAGCCCCAGUCAGAUCCUGGUGAAUCUGCGAAUUCUGCUGUAUAUCUC [G6A G10A U41A U49C],0.05
9,UAACAAGGGCCCACUGCAGAAGCUCUCACGUCGCAGCCCCUGUCAGAUUCUGGUGAAUCUGCGAAUUCCGCUGUAUAUCUC [G6A G10C A15U G24U U25C U69C],0.07
10,UAACAAGGGCCCACAGCAGAAGCGUUCACGUCGCAGCCCCUGUCAGAUUCUGGUGAAUCCGCGAAUUCUGCUGUAUAUCUC [G6A G10C U60C],0.4
11,UAACAAGGGGCCACAACAGAAGCGUUCACGUCGCGGCCCCUGUCUGAUUCUGGUGAAUCUGCGAAUUCUGCUGUAUAGCUC [G6A G16A A35G A45U U78G],0.25
12,UAACAAGGGGCCACAGCAGAAGCAUUCUCGUCGCAGCCCCCGUCAGAUUCUGGUGAAUCUGCGAAUUCUGCUGUAUAUCUC [G6A G24A A28U U41C],0.15
13,UAACAAGGGGCCACAGCAGAAGCACUCUCGUCGCAGCCACUGUCAGAUACUGGUGAAUCUGCGAAUUCUGCUGCAUAUCUC [G6A G24A U25C A28U C39A U49A U74C],0.05
14,UAACAAGGGGCCACAGCAGAAGCGUUCACAUCGCAGCCCCUGUCAGUUUCUGGUGAAUCUGCGAAGUCUGCUGUAUAUCAC [G6A G30A A47U U66G U80A],0.04
15,UAACAAGGGGCCACAGCAGAAGCGUUCACAUCGCAGCCCCUGUCAGAUUCUGGUGAAUCUGCGGAUUCAGCUGUAUAUCUC [G6A G30A A64G U69A],0.09
16,UAACAAGGGGCCACAGCAGAAGCGUUCACGUCACAGCCCCUGUCAGAUUCUGGUGAAUCUGCAAAUCCUGCUGUAUAUCUC [G6A G33A G63A U67C],0.05
17,UAACAAGGGGCCACAGCAGAAGCGUUCACGUCACAGCCCCUGUCAGAUUCUGGUGAAUCCGCGGAUUCUGCUGUAUAUCUC [G6A G33A U60C A64G],0.05
